The results in this text go back to paper PMC4336329 (PLoS ONE, 2015).

About 14,000 (4.5%) of roughly 310,000 compounds showed an effect of 50% or more. The effect is printed as a negative number. This is one part of the list.
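Note: peak tail current of the secondary pulse compared with the same well before compound.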

For this assay, the target named is human ether-à-go-go-related gene (hERG) potassium channel (human, UniProt Q12809). In words: primary screen, population patch clamp on CHO cells stably expressing hERG.
Sequence of human ether-à-go-go-related gene (hERG) potassium channel (Q12809 whole entry, looked up): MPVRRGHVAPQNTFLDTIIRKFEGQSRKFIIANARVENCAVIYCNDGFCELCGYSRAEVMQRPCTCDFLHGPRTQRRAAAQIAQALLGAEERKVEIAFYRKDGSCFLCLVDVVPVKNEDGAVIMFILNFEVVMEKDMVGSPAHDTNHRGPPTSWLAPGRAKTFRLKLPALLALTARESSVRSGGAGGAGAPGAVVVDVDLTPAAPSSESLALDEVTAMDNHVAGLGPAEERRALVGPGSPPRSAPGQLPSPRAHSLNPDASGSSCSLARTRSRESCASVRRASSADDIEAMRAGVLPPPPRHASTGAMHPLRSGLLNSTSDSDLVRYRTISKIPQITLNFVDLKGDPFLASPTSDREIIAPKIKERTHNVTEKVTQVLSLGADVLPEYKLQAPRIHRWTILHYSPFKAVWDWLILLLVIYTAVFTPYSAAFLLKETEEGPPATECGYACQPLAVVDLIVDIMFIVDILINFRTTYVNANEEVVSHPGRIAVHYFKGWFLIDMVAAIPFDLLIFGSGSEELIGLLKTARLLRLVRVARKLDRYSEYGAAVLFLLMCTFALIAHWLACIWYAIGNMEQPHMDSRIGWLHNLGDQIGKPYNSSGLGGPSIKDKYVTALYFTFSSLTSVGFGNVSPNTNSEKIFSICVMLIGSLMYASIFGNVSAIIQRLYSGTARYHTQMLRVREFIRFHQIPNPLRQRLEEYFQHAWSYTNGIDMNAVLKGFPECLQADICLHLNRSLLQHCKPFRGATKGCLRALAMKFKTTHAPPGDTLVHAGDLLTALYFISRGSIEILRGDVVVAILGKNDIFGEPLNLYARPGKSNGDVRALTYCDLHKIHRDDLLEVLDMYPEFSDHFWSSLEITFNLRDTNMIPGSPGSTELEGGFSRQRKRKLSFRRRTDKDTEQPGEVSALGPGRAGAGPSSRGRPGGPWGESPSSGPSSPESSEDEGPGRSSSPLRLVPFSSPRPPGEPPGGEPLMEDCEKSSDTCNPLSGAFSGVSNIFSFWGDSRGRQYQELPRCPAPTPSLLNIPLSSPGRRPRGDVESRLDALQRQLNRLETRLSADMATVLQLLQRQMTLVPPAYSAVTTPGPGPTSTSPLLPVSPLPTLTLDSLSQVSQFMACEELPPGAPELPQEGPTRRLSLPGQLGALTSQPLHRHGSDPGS
`Cc1ccc(NC(=O)c2ccc(OC(=O)CCN3C(=O)c4ccccc4C3=O)cc2)cc1`: the “hERG current change (%, negative = inhibition) at 10uM” value stood at 6.93%.
With `CCN(C(=O)CSc1nc2cc(C(=O)OC)ccc2c(=O)n1Cc1ccco1)c1cccc(C)c1` the figure was -6.91%; with `COc1ccc(N(C(=O)c2cnccn2)C(C(=O)NC2CCCCC2)c2cc(OC)c(OC)c(OC)c2)cc1` (stereo not shown), 17.4%; with `COc1ccccc1C1=Nn2c(nnc2C2CCCCC2)SC1`, -23.4%.
Consider `COc1ccc(C(=O)CCN2CCCC(C)C2)cc1.Cl` (stereo not shown), for which the “hERG current change (%, negative = inhibition) at 10uM” value was -26.2%.
In the case of `COC(=O)C1=C(C)NC2=C(C(=O)C(C(=O)OC)C(c3ccc(OC)cc3)C2)C1c1ccccn1` (stereo not shown), the “hERG current change (%, negative = inhibition) at 10uM” value is given as -7.27%.
With `COc1ccc(C(=O)OCc2cc(=O)n3c(C)csc3n2)cc1F` the figure was -2.77%.
Take `CCOC(=O)c1c(NC(=O)CSc2nnc(CNc3ccc(OC)cc3)n2C)sc(C)c1C`: the “hERG current change (%, negative = inhibition) at 10uM” value is -21.7%.
For `COCc1nnc(NC(=O)CC(C)c2ccccc2)s1` (stereo not shown), the “hERG current change (%, negative = inhibition) at 10uM” value is listed as 18.7%.
On to `CCOC(=O)Cn1nc(NC(=O)COc2ccc(F)cc2)cc1C`, for which the “hERG current change (%, negative = inhibition) at 10uM” value was -0.548%.
Regarding `CC1CCCC(NC(=O)C2CCN(C(=O)Nc3ccccc3)CC2)C1C` (stereo not shown), the “hERG current change (%, negative = inhibition) at 10uM” value is reported as -3.13%.
Consider `CCOc1ccc(C(=O)NCCc2cnc[nH]2)cc1`, for which the “hERG current change (%, negative = inhibition) at 10uM” value worked out at 8.02%.
With `COc1cccc(CN2CCNC(=O)C2CC(=O)N2CCOc3ccccc3C2)c1OC` (stereo not shown) the figure was 7.79%; with `c1ccc2c(CNC3CCCCC3)c[nH]c2c1`, -20.7%.
With `CCCNC(=O)COC(=O)/C=C/c1ccco1` the figure was 2.96%; with `COc1ccc(S(=O)(=O)N2CCCCCC2)cc1C(=O)OCC(=O)Nc1cc(C)on1`, 9.6%.
Turning to `CC(=O)N/C(=C\c1ccc(F)cc1)C(=O)NC(Cc1c[nH]c2ccccc12)C(=O)O` (stereo not shown), the “hERG current change (%, negative = inhibition) at 10uM” value was -8.16%.
With `Cc1cc(C)c(C#N)c(N2CCCC2)n1` the figure was 5.67%.
With `O=C1/C(=C/c2ccc3c(c2)OCO3)Oc2cc(OCC(=O)N3CCC[C@H]3C(=O)O)ccc21` the figure was 9.16%; with `C/C(=N\Nc1ccccc1)c1c(O)cc(C)oc1=O`, 20.8%; with `COc1cccc(NC(=O)CN2C(=O)NC(CCc3ccccc3)C2=O)c1` (stereo not shown), -7.13%.
With `C=CCNc1sc(C(=O)C2CC2)c(N)c1C#N` the figure was -16.5%; with `OC(CN1CCCCC1)c1c[nH]c2ccccc12` (stereo not shown), 6.4%.
For the compound `COCCNC(=O)c1cccc(OC2CCN(Cc3ccc(OC(F)F)cc3)CC2)c1`, the “hERG current change (%, negative = inhibition) at 10uM” value is reported as -73.5%.
With `Cc1cc(OCC(=O)NCCN2CCOCC2)cc(C)c1Cl` the figure was 2.78%; with `CCOC(=O)C1CCN(C(c2cc3ccc(C)c(C)c3[nH]c2=O)c2nnnn2C2CCCCC2)CC1` (stereo not shown), 2.13%.
Take `Cn1ccnc1C(O)(c1ccccc1)c1ccccc1`: the “hERG current change (%, negative = inhibition) at 10uM” value was 3.78%.
With `N#Cc1ccc(-c2csc(-c3ccno3)n2)cc1` the figure was -14.6%.
For the compound `CCOC(=O)NC(=O)/C(C=Nc1ccc(Cl)c(Cl)c1Cl)=C(\C)O`, the “hERG current change (%, negative = inhibition) at 10uM” value was 8.2%.
In the case of `CSc1ccccc1OCc1cc(C(=O)NC2CCc3ccccc32)no1` (stereo not shown), the “hERG current change (%, negative = inhibition) at 10uM” value is recorded as 19.6%.
With `O=C(Nc1ccccc1Cl)O/N=C/c1ccncc1` the figure was -4.2%.
With `O=C(OCc1cccc(C(F)(F)F)c1)c1ccc[nH]c1=O` the figure was 7.91%.
For the compound `Cc1nc(CSc2ccc(Cl)cc2)cc(N2CC(C)OC(C)C2)n1` (stereo not shown), the “hERG current change (%, negative = inhibition) at 10uM” value was -4.52%.
For `CCOc1ccccc1N(CC(=O)NC1CCCCC1)S(C)(=O)=O`, the “hERG current change (%, negative = inhibition) at 10uM” value was 4.57%.
In the case of `COC(=O)c1cnc(Oc2c(Cl)cc(N)cc2Cl)cc1C(F)(F)F`, the “hERG current change (%, negative = inhibition) at 10uM” value is listed as 4.01%.
With `CCOc1cccc(CN(C)CC2CCCN(CCc3ccc(Cl)cc3)C2)c1O` (stereo not shown), the “hERG current change (%, negative = inhibition) at 10uM” value is given as -69.7%.
With `CCCCC(=O)Nc1nnc(SCC(=O)N2CCN(c3ccccc3OC)CC2)s1` the figure was 8.63%; with `CSc1c(C#N)c(N)nc2sc(C(=O)c3ccc(Cl)c(Cl)c3)c(N)c12`, 1.87%.
On to `O=C(NCCOc1ccccc1F)C1CCC(=O)N(CCc2cccc(F)c2)C1` (stereo not shown), for which the “hERG current change (%, negative = inhibition) at 10uM” value is listed as -35.8%.
Turning to `CCN(c1ccccc1C)S(=O)(=O)c1cc2c3c(c1)CCC(=O)N3CCC2`, the “hERG current change (%, negative = inhibition) at 10uM” value is recorded as -11.2%.
For `O=C(/C=C/c1ccccn1)c1ccc(Br)cc1O`, the “hERG current change (%, negative = inhibition) at 10uM” value stood at 16.9%.
With `COC(=O)c1cc(=O)n(CCc2ccccc2)c(=Nc2ccc(F)cc2)s1` the figure was 16.7%; with `O=C1NC(=S)N/C1=C/c1cccc([N+](=O)[O-])c1O`, 7.66%; with `Cc1ccc(NC(=O)CC(C)S(=O)(=O)c2ccc3c(c2)NC(=O)CO3)cc1C` (stereo not shown), 7.73%.
For `COc1ccc(/C=C/C(=O)O)cc1S(=O)(=O)N1CCCC1`, the “hERG current change (%, negative = inhibition) at 10uM” value stood at 2.45%.
Turning to `COc1cc(S(=O)(=O)Nc2cccnc2)ccc1Cl`, the “hERG current change (%, negative = inhibition) at 10uM” value amounted to 2.14%.
Consider `COc1ccc(N2CC(C(=O)Nc3ccc(S(=O)(=O)Nc4nc(C)cc(C)n4)cc3)CC2=O)cc1` (stereo not shown), for which the “hERG current change (%, negative = inhibition) at 10uM” value was 7.84%.
The same measure for `O=C1N=C(c2ccccc2)C(c2ccccc2)N1` (stereo not shown): -6.89%; for `CCN1C(=O)S/C(=C/c2ccc(Sc3nc4ccccc4[nH]3)o2)C1=O`: 8.34%.
Take `O=C(Nc1nnc(CC2=CCCCC2)s1)Nc1ccccc1F`: the “hERG current change (%, negative = inhibition) at 10uM” value is listed as 4.93%.
As for `CC(=O)Nc1ccc(NC(=O)c2ccc3c(c2)CCN3S(C)(=O)=O)cc1`, the “hERG current change (%, negative = inhibition) at 10uM” value came to 16.3%.
For the compound `CCCCC12CN3CCN(CC(C3)/C1=N\NC(=O)Nc1ccccc1)C2`, the “hERG current change (%, negative = inhibition) at 10uM” value is on record as -32.5%.
The same measure for `COC(=O)c1ccc(NC(=O)CO/N=C2\CCCc3nonc32)cc1`: -4.31%; for `COc1cc(Cl)c(C)cc1NC(=O)CN1C(=O)C2CCCCC2C1=O` (stereo not shown): -8.62%; for `Cc1[nH][nH]c(=O)c1C=NCc1cccnc1`: 23.6%.
With `Cc1cccc(-n2cc(-c3ccccc3)[nH]c2=S)c1` the figure was 4.11%.
As for `Cc1nc2c(ncn2-c2ccccc2)c(=O)n1NC(=O)CN1CCOCC1`, the “hERG current change (%, negative = inhibition) at 10uM” value is 14.4%.
With `CN(C)CCCNc1ccc(S(N)(=O)=O)cc1[N+](=O)[O-]`, the “hERG current change (%, negative = inhibition) at 10uM” value is -13.1%.
